The text below walks through data of paper PMC6451091.

The other results are listed elsewhere or left out. For some assays here: At the low end of the ranking the order means little. For some assays here: Measured with an extract: partners may take part in the binding.

What all share (conditions): 20 mM HEPES pH 7.9, 100 mM NaCl, 1 mM DTT, 0.2 mg/mL BSA, 0.02% Triton X-100, 2% milk, 0.4 mg/mL salmon testes DNA; 1 h; temperature not stated; high values mean tight binding; double strand, one strand shown; sequences stand for … in GCCTAGCAC…GTGCTAGGTCTTGATTCGCTTGACGCTGCTG
One assay has as its target PU.1 (IVT) (UniProt P17947). Put plainly: protein-binding microarray (PBM).
In assay [1] the target is PU.1 (endogenous, THP-1 nuclear extract) (UniProt P17947). As to the kind of experiment: nuclear extract protein-binding microarray (nextPBM).
For assay [2], the target named is T1, FLI1 (endogenous, THP-1 nuclear extract) (UniProt Q01543).
T1 sequence: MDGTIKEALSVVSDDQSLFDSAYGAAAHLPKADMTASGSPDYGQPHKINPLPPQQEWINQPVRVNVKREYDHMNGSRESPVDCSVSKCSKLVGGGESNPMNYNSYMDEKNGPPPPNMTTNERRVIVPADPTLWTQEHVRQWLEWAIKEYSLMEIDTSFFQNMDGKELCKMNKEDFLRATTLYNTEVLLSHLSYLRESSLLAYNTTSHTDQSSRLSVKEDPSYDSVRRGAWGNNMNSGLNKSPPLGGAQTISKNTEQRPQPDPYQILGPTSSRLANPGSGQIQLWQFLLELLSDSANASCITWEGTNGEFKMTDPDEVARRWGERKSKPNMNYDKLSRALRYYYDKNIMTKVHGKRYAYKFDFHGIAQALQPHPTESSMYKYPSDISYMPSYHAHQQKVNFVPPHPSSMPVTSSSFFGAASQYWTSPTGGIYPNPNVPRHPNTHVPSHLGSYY
Described as above.

The test system of assay [3] is PU.1 (endogenous, THP-1 nuclear extract) + IRF8 (endogenous, THP-1 nuclear extract). The description is as above.

In the case of TCTGTTACACTTAAAACACA, the binding signal in the assay with PU.1 (IVT) was 0.221 z-score; in assay [1], -0.341 z-score; in assay [2], -0.431 z-score; in assay [3], -1.9 z-score.
Consider GTTGCTTGAAAAGAGAAGTG, for which the binding signal with PU.1 (IVT) is 3.64 z-score; in assay [1], 3.74 z-score; in assay [2], 1.22 z-score; in assay [3], -0.271 z-score.
Turning to AGCGCCACGCCCAGGTGTCC, the binding signal with PU.1 (IVT) is -0.461 z-score; in assay [1], -0.509 z-score; in assay [2] it was -0.453 z-score; in assay [3] it was 0.257 z-score.
Take CTATGTGCTGTGAAATTACA: the binding signal with PU.1 (IVT) was 0.018 z-score; in assay [1], -0.0807 z-score; in assay [2], -0.191 z-score; in assay [3], 0.0519 z-score.
Regarding TGACACAGAAGGAAAGTGAG, the binding signal was -0.0222 z-score with PU.1 (IVT), 0.0777 z-score in assay [1], 0.196 z-score in assay [2] and 0.999 z-score in assay [3].
With GAGTGAACTCACGTCCACAC, the binding signal with PU.1 (IVT) is -0.708 z-score; in assay [1], -0.482 z-score; in assay [2] it was -0.289 z-score; in assay [3], 0.959 z-score.
The like results for GTCCTTCAGGATATATTTAA were, in that order, -0.32 z-score, -0.0429 z-score, 1.19 z-score and -0.518 z-score.
For TTTCAAGATACCAATGTGAA, the binding signal with PU.1 (IVT) is -0.0469 z-score; in assay [1], 0.0293 z-score; in assay [2], 0.0495 z-score; in assay [3], -0.415 z-score.
The like results for CCAGTAGTAGTTAGGGCAGA were, in that order, -0.0293 z-score, -0.158 z-score, -0.543 z-score and 0.946 z-score.
Turning to TGAAACACTGCGTGAAACCA, the binding signal was -0.383 z-score with PU.1 (IVT), -0.366 z-score in assay [1], -0.757 z-score in assay [2] and 2.83 z-score in assay [3].
GCTGCTCCCTCTTTTCTTCC: the binding signal with PU.1 (IVT) is -0.412 z-score; in assay [1], 0.0782 z-score; in assay [2] it was 0.392 z-score; in assay [3], 1.41 z-score.
Consider AGACATATTCACCACAGACT, for which the binding signal in the assay with PU.1 (IVT) is 0.159 z-score; in assay [1], -0.405 z-score; in assay [2] it was -0.527 z-score; in assay [3], -0.0659 z-score.
As to CAGCTGAGACCCCCAGCCGC, the binding signal with PU.1 (IVT) was -0.47 z-score; in assay [1] it was -0.218 z-score; in assay [2], 0.72 z-score; in assay [3], 1.04 z-score.
Consider CGGGAGCCTTGTGGCGAAAA, for which the binding signal is -0.807 z-score with PU.1 (IVT), -0.681 z-score in assay [1], -0.0261 z-score in assay [2] and -0.246 z-score in assay [3].
Regarding GTAAAATGGGAGTTTCTCAG, the binding signal in the assay with PU.1 (IVT) is -0.279 z-score; in assay [1], -0.524 z-score; in assay [2], 0.105 z-score; in assay [3] it was 0.45 z-score.
As to CAGGCAACTGCCTGAAACTC, the binding signal in the assay with PU.1 (IVT) was -0.184 z-score; in assay [1] it was -0.148 z-score; in assay [2] it was -0.573 z-score; in assay [3], 2.1 z-score.
Turning to GAAGGGAAAGTTCTACTGCC, the binding signal with PU.1 (IVT) is -0.378 z-score; in assay [1] it was -0.438 z-score; in assay [2] it was -0.187 z-score; in assay [3], -1.95 z-score.
For the sequence ACAGAAATTTTAGAAATATC, the binding signal in the assay with PU.1 (IVT) is -0.111 z-score; in assay [1] it was -0.74 z-score; in assay [2], -0.233 z-score; in assay [3], -0.0036 z-score.
Take AGCGGCTTCTTCAGAGCACG: the binding signal is -0.0347 z-score with PU.1 (IVT), -0.49 z-score in assay [1], -0.85 z-score in assay [2] and -0.154 z-score in assay [3].
Regarding GATATCCCAACTCAGAGGTC, the binding signal with PU.1 (IVT) is -0.579 z-score; in assay [1], -0.41 z-score; in assay [2], -0.195 z-score; in assay [3], -0.142 z-score.
Consider TCTGGTTTCACACCTAAATA, for which the binding signal with PU.1 (IVT) is 0.00568 z-score; in assay [1], -0.371 z-score; in assay [2], -0.171 z-score; in assay [3], 6.95 z-score.
As to TTTTTTTCTCAGTATTCTTT, the binding signal was -0.127 z-score in the assay with PU.1 (IVT), -0.759 z-score in assay [1], -0.325 z-score in assay [2] and -0.972 z-score in assay [3].
For the sequence ATTTTGACTGCCTGAAACTG, the binding signal is -0.512 z-score with PU.1 (IVT), -0.74 z-score in assay [1], 0.0636 z-score in assay [2] and 2.52 z-score in assay [3].
Take TACAAGCCAGGAAGACAGAC: the binding signal was -0.258 z-score with PU.1 (IVT), -0.12 z-score in assay [1], 0.995 z-score in assay [2] and -0.459 z-score in assay [3].
With CCATGCATAAAATTTTATGA, the binding signal in the assay with PU.1 (IVT) is 0.0197 z-score; in assay [1] it was 0.000896 z-score; in assay [2] it was -0.313 z-score; in assay [3], -1.3 z-score.
As to AGCCCTGGGCAGCAGCCAGG, the binding signal was -0.841 z-score with PU.1 (IVT), -0.0273 z-score in assay [1], -0.831 z-score in assay [2] and 1.83 z-score in assay [3].
For the sequence GGTAGAGCTGCGTGAAAGTG, the binding signal is -0.785 z-score in the assay with PU.1 (IVT), -0.345 z-score in assay [1], -0.438 z-score in assay [2] and 1.15 z-score in assay [3].
Regarding AGCTGGGCATCCTCCATGAT, the binding signal with PU.1 (IVT) was -0.431 z-score; in assay [1], -0.186 z-score; in assay [2], 1.45 z-score; in assay [3], 0.566 z-score.
The like results for AACTAAATTAAACCACACCA were, in that order, 0.114 z-score, -0.0179 z-score, 0.0688 z-score and 0.659 z-score.
As to GTTAAAATTTTTAAAATATG, the binding signal with PU.1 (IVT) was 0.203 z-score; in assay [1], -0.931 z-score; in assay [2] it was 0.404 z-score; in assay [3], -1.56 z-score.
In the case of TTTAGGACAAAGGCAGCCCT, the binding signal is -0.0628 z-score with PU.1 (IVT), -0.444 z-score in assay [1], -0.655 z-score in assay [2] and -0.503 z-score in assay [3].
Consider TGTCACAAATCCATCACTGA, for which the binding signal is 0.291 z-score in the assay with PU.1 (IVT), -0.2 z-score in assay [1], -0.524 z-score in assay [2] and -0.706 z-score in assay [3].
Regarding CCCCTGTGGGTGAGTCAGAG, the binding signal is -0.469 z-score with PU.1 (IVT), -0.455 z-score in assay [1], -0.748 z-score in assay [2] and -0.385 z-score in assay [3].
For GACGGGGAAGGACATGGAGC, the binding signal with PU.1 (IVT) was -0.464 z-score; in assay [1] it was 0.0923 z-score; in assay [2] it was 0.41 z-score; in assay [3], 0.484 z-score.
Take CAACCAACTCTACCTGAGAA: the binding signal is 0.225 z-score with PU.1 (IVT), 0.628 z-score in assay [1], -0.456 z-score in assay [2] and 0.0452 z-score in assay [3].
